# Results as given in PubChem BioAssay AID686978 (National Center for Advancing Translational Sciences (NCATS), 2013).
# “And” between values parts separate entries of the source, which are not always exact repeats. Identical values can stand only once. Hit rate of the full screen: of about 420,000 compounds, about 64,000 (15%) were called active. The inconclusive results got no clear call from the source; some entries with a clear call stand among them for comparison. Calls come from the whole dose curve; as a rule, active = well fitted inhibition curve with a large enough effect; inconclusive = small, poorly fitted or top-dose-only effect; inactive = flat fitted curve, though single readings scatter. No potency is given beside an inconclusive call; the fits are too rough.
# Assay: qHTS for Inhibitors of human tyrosyl-DNA phosphodiesterase 1 (TDP1): qHTS in cells in absence of CPT; note: nearly all actives have a fitted effect of over 55% in size
# Details: DT40 Tdp1-/- hTDP1 cells, no CPT, ATP luminescence, 48 h; activity change, negative = growth inhibition: at 46.2 µM (top of the series) unless noted
# Method in brief: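 Camptothecin absent (DMSO only). Human TDP1-complemented DT40 knockout cells, 400 cells/well, 37 °C for minimum 48 hr; ATP measured via CellTiter-Glo, 30 min dark incubation, luminescence.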
# % is set by controls: 0 for no effect and ±100 for the full control effect; potency is the fitted concentration of half-maximal effect; tags give direction and shape of the fitted curve.
SMILES,Potency,"activity change, negative = growth inhibition"
CCOc1ccc(CCNC(=O)c2nnn(CC(=O)Nc3ccc(OC)c(OC)c3)c2N)cc1OCC,"inconclusive [inhibitor, partial curve]",–
CCC(COC)NC(=O)CCc1nnc(Cc2cccc(C(F)(F)F)c2)o1 (stereo not given),–,inactive: -4.05%
COc1ccc(CN2CCn3ncc(C(=O)Nc4cccc(C)c4)c3C2=O)cc1,"inconclusive [inhibitor, single point]",–
Cc1ccc(CN(C)S(=O)(=O)c2c(C)noc2/C=C/N(C)C)cc1,–,inactive: 16.8%
CCN1C(=O)[C@H]2[C@@H](c3ccc(-c4cc(C(C)=O)cs4)cc3)N[C@@](Cc3ccccc3)(C(=O)OC)[C@H]2C1=O,"inconclusive [inhibitor, single point]",–
CC(=O)N(C)c1ccc(C=C2C=Cc3ccccc32)cc1,active: 9.2 µM,–
CC(NC(=O)c1cc(F)c(F)cc1Cl)C1CC2CCC1C2 (stereo not given),–,inconclusive: -33.5% [inhibitor]
Cc1oc(-c2cccs2)nc1CS(=O)CC(=O)NC1CCCCCC1 (stereo not given),"inconclusive [inhibitor, single point]",–
COc1ccc2nc(NC(=O)c3nc(SCc4ccccc4F)ncc3Cl)sc2c1,–,inactive: -1.34%
Cc1ccc(NC(=S)N2CCC(C(=O)c3ccc(F)cc3)CC2)cc1C,–,inactive: -21.7%
Cc1ccc(OCc2ccc(-c3ccccc3)cc2)c([N+](=O)[O-])n1,"inconclusive [inhibitor, single point]",–
COc1ccc(S(=O)(=O)N2CCCCCC2)cc1NC(=O)Cc1n[nH]c(=O)c2ccccc12,–,inactive: -8.16%
O=C(NC12CC3CC(CC(C3)C1)C2)N(Cc1ccccc1)Cc1ccncc1,active: 18.4 µM,–
O=S1(=O)N[C@H](Cc2ccccc2)COc2cc(N3CC[C@H](O)C3)ccc21,"inconclusive [inhibitor, single point]",–
COC(C[C@@H](O)CC(=O)[C@H](C)OCc1ccccc1)OC,–,inactive: -4.57%
CCCCn1c(NCc2cc(Br)ccc2O)nc2ccccc21,active: 14.6 µM,–
O=C(N/N=C/c1ccccc1F)c1csc2c1CCCC2,"inconclusive [inhibitor, full curve, poor fit]",–
COc1cc([N+](=O)[O-])ccc1NC(=O)C[n+]1ccccc1C,–,inactive: -9.29%
O=C(CSc1nnc(-c2cccc(S(=O)(=O)N3CCCCC3)c2)o1)NCCC1=CCCCC1,"inconclusive [inhibitor, single point]",–
Cc1ccc(CSc2nnc(-c3ccccn3)n2Cc2cccs2)cc1,"inconclusive [inhibitor, single point]",–
CC(=O)c1ccc(NC(=S)NC(=O)CC(C)C)cc1,–,inactive: 10.3%
CCOC(=O)Nc1ccc2c(CN(C)Cc3ccc(F)cc3)cc(=O)oc2c1,"inconclusive [inhibitor, single point]",–
CCN1C(c2ccccc2)=C(c2ccccc2)S/C1=C/C=C1\SC(=S)N(C)C1=O,active: 10.3 µM,–
COc1ccccc1CNC(=O)C1CCN(S(=O)(=O)c2ccc3c(ccn3C)c2)CC1,"inconclusive [inhibitor, single point]",–
Cc1nnc(SCC2=C(C(=O)O)N3C(=O)C(NC(=O)Cn4nc(C)c(Cl)c4C)C3SC2)s1 (stereo not given),–,inactive: 3.68%

SMILES,Potency,"activity change, negative = growth inhibition"
O=[N+]([O-])c1cccnc1N1CCC(c2cc(-c3cccc(C(F)(F)F)c3)n[nH]2)CC1,"inconclusive [inhibitor, single point]",–
O=C(Nc1ccc(Cl)cc1)C1Cc2c(-c3ccc(Cl)cc3)ccnc2O1 (stereo not given),active: 20.6 µM,–
COc1ccc(NC(=S)N2CCNC(=O)C2CC(=O)Nc2cccc(Cl)c2C)cc1 (stereo not given),–,inactive: -13.4%
Cc1nn(C)cc1CNCc1c(C(=O)N2CCCCC2)nc2c(C)cccn12,–,inactive: -4.75%
Cc1cccc(NC(c2ccccc2C)c2ccc3ccc(C)nc3c2O)n1 (stereo not given),active: 14.6 µM,–
COc1ccccc1/C=C/C(=O)OCC(=O)NNC(=O)c1ccccc1,active: 18.4 µM,–
COC(=O)c1c(-c2cccs2)csc1NC(=O)c1ccc(OC)c(OC)c1,active: 9.2 µM,–
COc1ccc(F)cc1C(=O)C1CCCN(C(=O)c2cccc(N(C)C)c2)C1 (stereo not given),"inconclusive [inhibitor, single point]",–
CCN1/C(=C/c2ccc3ccccc3[n+]2CC)C=Cc2ccccc21,active: 1.46 µM,–
O=S(=O)(NCc1cc(-c2ccccc2Cl)no1)c1ccc(Cl)cc1,"inconclusive [inhibitor, single point]",–
COc1ccc(S(=O)(=O)c2c(SC)nn(CC(=O)Nc3cccc(C)c3C)c2N)cc1,"inconclusive [inhibitor, partial curve, poor fit]",–
Cc1ccc(-c2nc(CS(=O)(=O)CC(=O)NCCc3ccccc3)c(C)o2)cc1,–,inactive: -20.7%
Cc1ccc(NCc2nnc3n2CCCCC3)c(C)c1,"inconclusive [inhibitor, full curve]",–
Cn1nc(C(=O)OCC(=O)Nc2cccc(S(=O)(=O)N3CCCC3)c2)c2ccccc2c1=O,–,inactive: -26.7%
O=C(COc1ccccc1)Nc1cc2c3c(c1)CC(=O)N3CCC2,–,inactive: -10.3%
CCCCCC(=O)N1C[C@H](O)[C@@H](n2cc(C3CC3)nn2)C[C@@H]1c1ccc(OC)cc1,"inconclusive [inhibitor, partial curve]",–
O=C(CNc1cccc(S(=O)(=O)N2CCOCC2)c1)Nc1cccc(Br)c1,"inconclusive [inhibitor, single point]",–
COc1ccc(CNC(=O)Cn2nc(N3CCN(c4ccccc4)CC3)ccc2=O)c(OC)c1,active: 14.6 µM,–
Clc1ccc(SCc2cn3ccccc3n2)cc1,"inconclusive [inhibitor, partial curve]",–
Cc1ncc(C23CC4CC(CC(C4)C2)C3)[nH]1,"inconclusive [inhibitor, single point]",–
COc1ccc(F)cc1S(=O)(=O)NCc1cc(=O)n(C)c(=O)n1C,–,inactive: 21.4%
Cc1nc2cnc(N(C)C)nc2n(CCc2ccccc2)c1=O,active: 8.2 µM,–
Cc1ccc(C)c(OCC(O)CN2C(C)CCCC2C)c1 (stereo not given),"inconclusive [inhibitor, single point]",–
CN(C)c1ccc(S(=O)(=O)N(C)C)cc1NC(=O)Cc1cccc2ccccc12,"inconclusive [inhibitor, single point]",–
Cn1cc(/C=C/c2ccc3ccccc3n2)c2ccccc21,active: 10 µM,–

SMILES,Potency,"activity change, negative = growth inhibition"
COc1ccc(CN2C(=O)CCC2(C)c2nnnn2-c2ccc3c(c2)OCCO3)cc1OC (stereo not given),–,inactive: -7.26%
Cc1cc(C)c(S(=O)(=O)Nc2ccncc2)cc1C,–,inactive: -6.57%
CCOC(=O)Cc1csc(N/N=C/c2ccccc2)n1,"inconclusive [inhibitor, single point]",–
CCCC(=O)Nc1ccc(NC(=O)C23CC4CC(CC(C4)C2)C3)cn1,–,inactive: -23.9%
Cn1c(=O)c2c(nc(Cl)n2CCOc2ccccc2)n(C)c1=O,"inconclusive [inhibitor, partial curve]",–
CCc1cc2c(COC(=O)c3c(C)noc3C)cc(=O)oc2cc1O,active: 10.3 µM,–
CCNc1cc(S(=O)(=O)C(F)(F)F)ccc1N,"inconclusive [inhibitor, partial curve, poor fit]",–
COc1ccc(CCNC(=O)c2cc(C(=O)c3cc(C)ccc3O)cn(CCc3ccc(OC)cc3)c2=O)cc1,"inconclusive [inhibitor, single point]",–
O=[N+]([O-])c1ccc(CSc2nnc(SCc3ccc(Cl)cc3)s2)cc1,"inconclusive [inhibitor, single point]",–
CCC(C)Nc1oc(-c2ccc(COc3ccc(Cl)cc3)o2)nc1C#N (stereo not given),active: 23.1 µM,–
CCCCCCCCCC[N+](C)(C)CC/C=C1/c2ccccc2Sc2ccc(Cl)cc21,active: 3.66 µM,–
CC1=C(C(=O)Nc2ccccc2)C(c2ccncc2)n2nc(SCc3ccccc3F)nc2N1 (stereo not given),–,inactive: 1.56%
CN(C)S(=O)(=O)c1ccc(Cl)c(NC(=O)CN2CCN(Cc3ccc4c(c3)OCO4)CC2)c1,active: 20.6 µM,–
CSc1ncnc2c1ncn2CCCNCc1ccc(C)o1,–,inactive: -29.2%
CCc1ccc(CN(Cc2ccco2)C(=O)COc2ccc(Cl)c(C)c2)cc1,"inconclusive [inhibitor, single point]",–
CCn1cc(C(=O)NCc2ccc(C)cc2)c(=O)c2cc(S(=O)(=O)N(C)C3CCCCC3)ccc21,"inconclusive [inhibitor, single point]",–
CCn1c2ccccc2c2cc(CNCCCN3CCOCC3)ccc21,active: 16.4 µM,–
CCN(CC)c1nc2c(S(=O)(=O)c3cccc(Cl)c3)nnn2c2ccsc12,active: 20.6 µM,–
Cc1cccn2c(=O)c(C=O)c(N3CCN(c4ccccc4)CC3)nc12,"inconclusive [inhibitor, single point]",–
COc1ccc(-n2nc(C(=O)N3CCN(c4ccc(F)cc4)CC3)c3ccccc3c2=O)c(OC)c1,"inconclusive [inhibitor, single point]",–
N#Cc1nc(-c2cccs2)oc1N1CCN(c2ccccc2)CC1,–,inactive: -2.97%
CCc1ccc(-c2cc(C(=O)NCc3ccccn3)c3ccccc3n2)cc1,"inconclusive [inhibitor, single point]",–
O=C1CNC(=S)N1CCc1ccccc1Cl,–,inactive: 13.9%
CCc1nnc(NC(=O)CSc2nc3cc(OC)ccc3cc2C)s1,active: 8.2 µM,–
Cc1cccc(OCC(O)Cn2c(=N)n(CCN3CCCCC3)c3ccccc32)c1 (stereo not given),active: 5.8 µM and active: 13 µM,–
